Results are given in words; binding and its absence hold for the method and conditions named. For some of these results: Binding seen in cells or lysates may run through a third protein. Some results given as binding are weak or reduced against the parent protein; the word gives no strength. Sequences can lack the tags named with a protein. One block for each binder: values may come before it.
What was measured:
GST-IST1 (human) = GST-IST1 (human) (UniProt P53990); assay: pull-down; GST pull-down: 293T co-transfected with GST or GST fusion and tagged AKTIP, 48 hrs; NP40 lysis buffer (150mM NaCl, 50mM Tris pH7.5, 1mM EDTA); glutathione-Sepharose beads 3hrs at 4°C; Western blot
[1] = biological target: GST-VPS28 (full length) (human) (UniProt Q9UK41); assay: as above
[2] = biological target: GST-VPS28 NT (1-120 aa) (human) (UniProt Q9UK41); assay: as above
VPS37A-GST (human) = VPS37A-GST (human) (UniProt Q8NEZ2); assay: as above
VPS37B-GST (human) = biological target: T1, VPS37B-GST (human) (UniProt Q9H9H4); assay: as above
T1 sequence: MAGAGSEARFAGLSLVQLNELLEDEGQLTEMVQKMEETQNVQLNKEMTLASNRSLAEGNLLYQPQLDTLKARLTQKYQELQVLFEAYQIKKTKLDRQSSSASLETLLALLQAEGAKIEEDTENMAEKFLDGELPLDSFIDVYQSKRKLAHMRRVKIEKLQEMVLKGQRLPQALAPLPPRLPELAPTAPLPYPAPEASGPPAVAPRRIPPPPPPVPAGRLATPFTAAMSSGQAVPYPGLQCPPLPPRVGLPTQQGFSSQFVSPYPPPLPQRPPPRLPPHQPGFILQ

Protein sequences, listed by entry. Tags and fused reporters are not part of them. Lines headed by an entry give the natural chain unless they say otherwise; changes in a name come on top. Residues count along the entry.
UniProt Q9UK41: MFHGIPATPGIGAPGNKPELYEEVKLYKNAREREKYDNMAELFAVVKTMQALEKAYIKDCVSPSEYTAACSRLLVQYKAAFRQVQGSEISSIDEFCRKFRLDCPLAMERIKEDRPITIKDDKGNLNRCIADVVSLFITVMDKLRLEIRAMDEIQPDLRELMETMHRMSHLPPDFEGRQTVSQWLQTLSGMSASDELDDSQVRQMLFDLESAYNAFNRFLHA
GST-VPS28 NT (1-120 aa): residues 1-120 of Q9UK41
UniProt Q8NEZ2: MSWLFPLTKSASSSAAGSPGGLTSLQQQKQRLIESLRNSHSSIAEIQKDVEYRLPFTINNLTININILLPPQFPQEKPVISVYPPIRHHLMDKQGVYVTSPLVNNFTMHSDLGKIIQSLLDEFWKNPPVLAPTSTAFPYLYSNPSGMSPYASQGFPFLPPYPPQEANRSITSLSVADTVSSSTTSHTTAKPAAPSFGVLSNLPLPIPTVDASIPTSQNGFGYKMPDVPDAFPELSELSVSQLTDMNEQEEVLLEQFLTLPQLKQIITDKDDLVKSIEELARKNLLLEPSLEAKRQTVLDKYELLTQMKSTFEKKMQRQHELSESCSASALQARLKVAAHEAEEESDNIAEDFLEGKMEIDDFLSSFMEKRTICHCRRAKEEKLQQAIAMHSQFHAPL
UniProt A5D8V6: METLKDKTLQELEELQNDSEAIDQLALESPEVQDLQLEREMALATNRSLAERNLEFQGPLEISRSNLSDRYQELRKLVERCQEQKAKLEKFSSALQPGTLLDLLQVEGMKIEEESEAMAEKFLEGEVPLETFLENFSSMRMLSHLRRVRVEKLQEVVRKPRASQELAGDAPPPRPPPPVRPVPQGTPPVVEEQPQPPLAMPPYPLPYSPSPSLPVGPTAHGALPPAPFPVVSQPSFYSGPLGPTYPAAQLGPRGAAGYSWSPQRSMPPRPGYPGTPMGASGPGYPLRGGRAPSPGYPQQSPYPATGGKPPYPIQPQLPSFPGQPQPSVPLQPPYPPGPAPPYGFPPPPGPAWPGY

VPS37C-GST (human) = VPS37C-GST (human) (UniProt A5D8V6); assay: as above
VPS37D-GST (human) = biological target: T2, VPS37D-GST (human) (UniProt Q86XT2); assay: as above
T2 sequence: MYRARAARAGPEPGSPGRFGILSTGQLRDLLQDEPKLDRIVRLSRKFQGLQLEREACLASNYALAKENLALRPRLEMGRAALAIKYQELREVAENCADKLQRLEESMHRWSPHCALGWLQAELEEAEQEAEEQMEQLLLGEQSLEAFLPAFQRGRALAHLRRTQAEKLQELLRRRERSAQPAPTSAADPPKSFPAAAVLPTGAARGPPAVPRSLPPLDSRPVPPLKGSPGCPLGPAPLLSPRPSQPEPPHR

GFP-VPS28 (human) = GFP-VPS28 (human) (UniProt Q9UK41); assay: pull-down; GFP-TRAP: 293T transfected with GFP-tagged ESCRT subunits or SEPT9 isoforms and AKTIP-Myc-Flag; lysis buffer 150mM NaCl, 50 mM Tris pH7.5, 1 mM EDTA, 1% glycerol, 1% NP40; magnetic agarose GFP-trap beads 10 minutes; Western blot with MYC antisera
[3] = biological target: T3, GFP-tagged SEPT9 isoform A (human) (UniProt Q9UHD8); assay: as above
T3 sequence: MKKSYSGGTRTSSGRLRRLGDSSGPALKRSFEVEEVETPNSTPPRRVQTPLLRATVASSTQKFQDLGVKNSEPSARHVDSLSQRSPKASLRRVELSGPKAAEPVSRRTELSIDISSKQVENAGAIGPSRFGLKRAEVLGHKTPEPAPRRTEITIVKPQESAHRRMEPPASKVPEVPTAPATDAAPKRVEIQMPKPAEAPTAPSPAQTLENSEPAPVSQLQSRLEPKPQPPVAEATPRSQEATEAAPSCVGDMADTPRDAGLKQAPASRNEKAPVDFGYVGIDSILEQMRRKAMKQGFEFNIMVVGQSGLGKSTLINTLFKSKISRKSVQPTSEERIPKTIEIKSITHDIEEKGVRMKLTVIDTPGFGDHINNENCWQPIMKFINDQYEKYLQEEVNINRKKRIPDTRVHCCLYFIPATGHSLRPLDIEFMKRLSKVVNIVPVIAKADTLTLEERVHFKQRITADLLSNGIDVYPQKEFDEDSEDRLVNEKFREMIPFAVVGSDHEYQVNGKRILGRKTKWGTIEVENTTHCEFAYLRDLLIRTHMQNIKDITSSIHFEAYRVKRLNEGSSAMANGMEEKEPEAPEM

VPS22-GFP (human) = biological target: T4, VPS22-GFP (human) (UniProt Q96H20); assay: as above
T4 sequence: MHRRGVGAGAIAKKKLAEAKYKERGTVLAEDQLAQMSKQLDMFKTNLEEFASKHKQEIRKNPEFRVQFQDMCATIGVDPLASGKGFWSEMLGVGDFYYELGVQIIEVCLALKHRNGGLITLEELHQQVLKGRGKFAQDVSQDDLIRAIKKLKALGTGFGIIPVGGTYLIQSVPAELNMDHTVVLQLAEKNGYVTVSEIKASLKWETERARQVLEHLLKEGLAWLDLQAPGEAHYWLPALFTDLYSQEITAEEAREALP

VPS25-GFP (human) = biological target: T5, VPS25-GFP (human) (UniProt Q9BRG1); assay: as above
T5 sequence: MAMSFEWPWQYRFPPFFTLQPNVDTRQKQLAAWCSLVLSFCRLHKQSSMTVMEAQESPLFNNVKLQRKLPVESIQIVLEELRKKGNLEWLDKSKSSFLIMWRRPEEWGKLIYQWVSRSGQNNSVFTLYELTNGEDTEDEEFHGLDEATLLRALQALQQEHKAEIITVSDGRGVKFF

VPS36-GFP (human) = biological target: T6, VPS36-GFP (human) (UniProt Q86VN1); assay: as above
T6 sequence: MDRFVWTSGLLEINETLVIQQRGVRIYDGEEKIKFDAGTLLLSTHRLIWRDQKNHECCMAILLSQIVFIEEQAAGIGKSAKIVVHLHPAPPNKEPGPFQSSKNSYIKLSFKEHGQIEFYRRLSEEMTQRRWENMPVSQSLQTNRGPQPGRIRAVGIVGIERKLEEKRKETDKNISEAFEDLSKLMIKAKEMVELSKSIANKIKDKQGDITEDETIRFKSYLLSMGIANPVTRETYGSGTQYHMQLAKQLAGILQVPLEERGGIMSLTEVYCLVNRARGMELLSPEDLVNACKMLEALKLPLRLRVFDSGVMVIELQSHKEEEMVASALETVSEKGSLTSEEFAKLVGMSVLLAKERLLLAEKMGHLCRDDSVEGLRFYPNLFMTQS

[4] = biological target: GST-VPS28 (full length) (human) (UniProt Q9UK41); assay: pull-down; GST pull-down: 293T co-transfected with GST-VPS28 (1000 ng), GFP-TSG101 (500 ng) and increasing amounts of HA-AKTIP plasmid (0, 50, 100, 500 or 1000 ng); glutathione-Sepharose beads; Western blot with GST, GFP, HA antisera
[5] = biological target: T7, AKTIP fused to the Gal4 DNA-binding domain (human) (UniProt Q9H8T0); assay: two-hybrid; yeast Y190 co-transformed with AKTIP-Gal4 DNA-binding domain (pGBKT7) and VP16 activation domain fusions (pHB18); liquid beta-galactosidase (LacZ) assay
T7 sequence: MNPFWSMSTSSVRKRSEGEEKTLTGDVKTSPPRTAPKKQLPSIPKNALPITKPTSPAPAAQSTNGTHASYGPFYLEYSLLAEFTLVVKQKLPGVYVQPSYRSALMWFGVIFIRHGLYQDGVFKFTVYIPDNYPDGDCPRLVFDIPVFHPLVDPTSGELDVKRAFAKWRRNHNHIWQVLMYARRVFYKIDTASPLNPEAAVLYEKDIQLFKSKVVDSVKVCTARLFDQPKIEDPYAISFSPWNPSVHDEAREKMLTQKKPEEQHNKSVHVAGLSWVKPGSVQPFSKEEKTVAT

binding (GST-IST1 (human)): no binding
binding [1]: binds
binding [2]: binds
binding (VPS37A-GST (human)): no binding
binding (VPS37B-GST (human)): no binding
binding (VPS37C-GST (human)): no binding
binding (VPS37D-GST (human)): no binding
binding (GFP-VPS28 (human)): binds
binding [3]: no binding
binding (VPS22-GFP (human)): no binding
binding (VPS25-GFP (human)): no binding
binding (VPS36-GFP (human)): no binding
B1: MYC-AKTIP (pCMV6-Entry-AKTIP-Myc-Flag) (protein, UniProt Q9H8T0 1-292)
chain: MNPFWSMSTSSVRKRSEGEEKTLTGDVKTSPPRTAPKKQLPSIPKNALPITKPTSPAPAAQSTNGTHASYGPFYLEYSLLAEFTLVVKQKLPGVYVQPSYRSALMWFGVIFIRHGLYQDGVFKFTVYIPDNYPDGDCPRLVFDIPVFHPLVDPTSGELDVKRAFAKWRRNHNHIWQVLMYARRVFYKIDTASPLNPEAAVLYEKDIQLFKSKVVDSVKVCTARLFDQPKIEDPYAISFSPWNPSVHDEAREKMLTQKKPEEQHNKSVHVAGLSWVKPGSVQPFSKEEKTVAT

binding [1]: binds
B4: GFP-AKTIP UEV (78-220 aa) (domain or fragment, UniProt Q9H8T0 78-220)
chain: SLLAEFTLVVKQKLPGVYVQPSYRSALMWFGVIFIRHGLYQDGVFKFTVYIPDNYPDGDCPRLVFDIPVFHPLVDPTSGELDVKRAFAKWRRNHNHIWQVLMYARRVFYKIDTASPLNPEAAVLYEKDIQLFKSKVVDSVKVC

Second part, the binder before the results:

B2: HA-AKTIP (full length, pCR3.1) (protein, UniProt Q9H8T0 1-292)
chain: MNPFWSMSTSSVRKRSEGEEKTLTGDVKTSPPRTAPKKQLPSIPKNALPITKPTSPAPAAQSTNGTHASYGPFYLEYSLLAEFTLVVKQKLPGVYVQPSYRSALMWFGVIFIRHGLYQDGVFKFTVYIPDNYPDGDCPRLVFDIPVFHPLVDPTSGELDVKRAFAKWRRNHNHIWQVLMYARRVFYKIDTASPLNPEAAVLYEKDIQLFKSKVVDSVKVCTARLFDQPKIEDPYAISFSPWNPSVHDEAREKMLTQKKPEEQHNKSVHVAGLSWVKPGSVQPFSKEEKTVAT
binding [1]: binds
binding [4]: binds

B3: CEP55 fused to the VP16 activation domain (protein, UniProt Q53EZ4 1-464)
chain: MSSRSTKDLIKSKWGSKPSNSKSETTLEKLKGEIAHLKTSVDEITSGKGKLTDKERHRLLEKIRVLEAEKEKNAYQLTEKDKEIQRLRDQLKARYSTTTLLEQLEETTREGERREQVLKALSEEKDVLKQQLSAATSRIAELESKTNTLRLSQTVAPNCFNSSINNIHEMEIQLKDALEKNQQWLVYDQQREVYVKGLLAKIFELEKKTETAAHSLPQQTKKPESEGYLQEEKQKCYNDLLASAKKDLEVERQTITQLSFELSEFRRKYEETQKEVHNLNQLLYSQRRADVQHLEDDRHKTEKIQKLREENDIARGKLEEEKKRSEELLSQVQFLYTSLLKQQEEQTRVALLEQQMQACTLDFENEKLDRQHVQHQLHVILKELRKARNQITQLESLKQLHEFAITEPLVTFQGETENREKVAASPKSPTAALNESLVECPKCNIQYPATEHRDLLVHVEYCSK
binding [5]: no binding
